Reference: PubChem BioAssay AID624296 (National Center for Advancing Translational Sciences (NCATS), 2012)
Screen size: about 350,000 compounds; about 9,900 (2.8%) were called active. The inconclusive results got no clear call from the source; some entries with a clear call stand among them for comparison. Calls follow the shape of the dose curve; as a rule, active = well fitted activation curve with a large enough effect; inconclusive = small, poorly fitted or top-dose-only effect; inactive = no such curve, though single readings can be large or run the other way. Potencies of inconclusive entries are left out as doubtful fits.
Potency is read from the fitted curve at half-maximal effect; tags tell the direction and shape of the fitted curve.

Test: A quantitative high throughput screen for small molecules that induce DNA re-replication in MCF 10a normal breast cells. Also: nearly all actives have a fitted effect of over 50% in size. As to activity, positive = re-replication: % of control where 0% means no effect.
Conditions: MCF 10A DNA re-replication, Hoechst nuclear intensity, 48 h; activity, positive = re-replication: at 46.1 µM (top of the series)
With Cc1cc(NC2CCCC2)n2nc(C)c(-c3ccccc3)c2n1 the Potency was inconclusive [activator, single point].
In the case of Nc1ccc2nc(-c3ccccc3)cnc2c1, the Potency is reported as inconclusive [activator, single point].
For Cc1cc(-c2csc(Nc3ccccn3)n2)ccc1F, the Potency was inconclusive [activator, partial curve, poor fit].
With CCN(CC)C(=O)N1c2ccccc2C=Cc2ccccc21 the Potency was inconclusive [activator, single point].
With CCOC(=O)c1c(NC(=O)C2C3C=CC(C3)C2C(=O)O)sc2c1CCC(CC)C2 (centres undefined) the Potency was inconclusive [activator, partial curve, poor fit].
In the case of Cc1nc(SCC(=O)Nc2nccs2)c(C#N)c(C)c1C, the Potency is reported as inconclusive [activator, single point].
With Nc1c(NCCN2CCOCC2)c2ccccc2oc1=O the “activity, positive = re-replication” value was inactive: 3.59%.
For O=C(N/N=C/c1cc(Cl)ccc1O)c1ccncc1, the Potency was inconclusive [activator, single point].
In the case of CCOc1ccc2[nH]c3nc(SCC(=O)OC(C)C)nnc3c2c1, the Potency is reported as inconclusive [activator, partial curve, poor fit].
For COc1cccc(C(=O)NCC(=O)N/N=C/c2cccc(OC(=O)c3ccc([N+](=O)[O-])cc3)c2)c1, the “activity, positive = re-replication” value was inactive: -7.75%.
In the case of CNC(=S)N/N=C/c1ccc(C(C)C)cc1, the Potency is reported as inconclusive [activator, single point].
With Cc1c2c(nc3c(C)cccc13)OC(C)C2 (centres undefined) the Potency was inconclusive [activator, single point].
With O=C1NN(c2ccccc2)C(=O)/C1=C\c1cccn1-c1ccc(Cl)c([N+](=O)[O-])c1 the Potency was inconclusive [activator, single point].
With N/C(=N\N=C/c1ccc(F)cc1)N/N=C\c1ccc(F)cc1 the Potency was inconclusive [activator, single point].
With COc1ccccc1N1CCN(C(=O)c2ccc(-c3nc4ccccc4s3)o2)CC1 the Potency was inconclusive [activator, single point].
In the case of Cc1ccccc1N=C1Nc2ccccc2CS1, the Potency is reported as inconclusive [activator, partial curve, poor fit].
With Cc1ccc(NC2=NCC(=O)N2C2CCCC2)cc1C the Potency was inconclusive [activator, partial curve, poor fit].
With COC(=O)c1ccccc1NC(=O)c1ccc(COc2cc(C)cc(C)c2)o1 the Potency was inconclusive [activator, single point].
For COc1cc2c(cc1OC)C(C(=O)NC(C)c1ccccc1)CC(=O)N2 (centres undefined), the “activity, positive = re-replication” value was inactive: -0.441%.
With Cc1[nH]c2ccccc2c1C(=O)CN1CC(C)CC(C)C1 (centres undefined) the Potency was inconclusive [activator, single point].
With Cc1cccc(OCCCC(=O)Nc2ccc(Cl)c(S(=O)(=O)N3CCOCC3)c2)c1 the Potency was inconclusive [activator, single point].
With CC1CCN(CCCOc2ccc(OCc3ccccc3)cc2)CC1 the Potency was inconclusive [activator, single point].
In the case of Cc1cccc(C)c1Nc1nnc(SCC(=O)c2ccc(Br)s2)s1, the “activity, positive = re-replication” value is reported as inactive: 6.8%.
With Nc1nnc(SCC(=O)Nc2cccc(S(=O)(=O)N3CCCCC3)c2)s1 the Potency was inconclusive [activator, full curve].
With COc1cc(/C=C2\C(=O)NN(c3ccc(C)cc3)C2=O)cc([N+](=O)[O-])c1O the Potency was inconclusive [activator, single point].
For COC(=O)c1sc(NC(=O)COc2ccc(C)cc2)nc1C, the “activity, positive = re-replication” value was inactive: 1.04%.
In the case of CC1CCN(C(=O)c2[nH]cnc2C(=O)Nc2ccon2)CC1, the “activity, positive = re-replication” value is reported as inactive: 0.485%.
In the case of CCSc1nc(C2CC2)cc(-c2cccs2)c1C#N, the Potency is reported as inconclusive [activator, single point].
For CCc1nnc(NC(=O)c2ccc(S(=O)(=O)N(CC(C)C)CC(C)C)cc2)o1, the Potency was active: 8.91 µM.
For COc1ccc(-c2nc(-c3ccccc3)nc(Cl)c2C#N)cc1, the Potency was inconclusive [activator, single point].
For CCn1cc(S(=O)(=O)Nc2cc(C(=O)OC)ccc2C)cn1, the Potency was inconclusive [activator, partial curve, poor fit].
For CCN(CC)c1ccc2cc(C=O)c(=O)oc2c1, the Potency was active: 11.6 µM.
For CCOC(=O)N1CCC(NC(=O)c2cc3c(-c4ccc(OC)c(OC)c4)nn(C)c3s2)CC1, the Potency was inconclusive [activator, partial curve, poor fit].
With Cc1cc([N+](=O)[O-])ccc1NCc1ccco1 the Potency was inconclusive [activator, single point].
With CC(=O)C1=C(O)C(=O)N(c2ccc(C(=O)O)cc2)C1c1ccc([N+](=O)[O-])cc1 (centres undefined) the Potency was inconclusive [activator, partial curve, poor fit].
For CCCCNc1nc(-c2ccccc2)c(C(=O)OCC)cc1C#N, the Potency was inconclusive [activator, single point].
With Cc1cc(C)nc(N=Nc2c(O)n(Cc3ccc(Cl)cc3)c3ccccc23)n1 the “activity, positive = re-replication” value was inactive: -0.473%.
For CN(C)C(=O)Nc1ccccc1CC[N+](=O)[O-], the “activity, positive = re-replication” value was inactive: -1.41%.
In the case of O=C(CSc1nc2ccccc2c(=O)n1Cc1ccco1)NCc1ccccc1, the Potency is reported as inconclusive [activator, partial curve, poor fit].
With CCN(CC)S(=O)(=O)c1ccc(N2CCN(C)CC2)c(NC(=O)Nc2ccc(C)cc2)c1 the Potency was active: 11.6 µM.
With O=C(CSc1ncnc2scc(-c3ccc(Cl)cc3)c12)NCc1ccc2c(c1)OCO2 the Potency was inconclusive [activator, single point].
With CC1=C(C(=O)OCc2ccccc2)C(c2ccc(-c3ccccc3)cc2)NC(=O)N1CCCCCC(=O)O (centres undefined) the Potency was inconclusive [activator, single point].
For O=C(O)/C=C/C(=O)Nc1ccccc1C(=O)OCC(=O)c1ccc2c(c1)OCCO2, the Potency was inconclusive [activator, single point].
In the case of COc1ccc(OC)c(Nc2cc(-c3ccccc3)nc(N)n2)c1, the Potency is reported as active: 0.651 µM.
In the case of c1ccc(CSc2nnc(-c3sccc3-n3cccc3)o2)cc1, the Potency is reported as inconclusive [activator, partial curve, poor fit].
With Oc1ccc(Br)cc1/C=N/n1c(-c2ccccc2)n[nH]c1=S the “activity, positive = re-replication” value was inactive: 17.9%.
With S=C(NCCN1CCOCC1)Nc1ccc(-c2nc3ccccc3[nH]2)cc1 the Potency was active: 1.03 µM.
In the case of Cn1c(N)c(C(=O)CSc2nc(C3CC3)n(-c3ccccc3)n2)c(=O)n(C)c1=O, the “activity, positive = re-replication” value is reported as inactive: 0.418%.
With COc1cc(-c2nnc(SCC(=O)N3CCOCC3)o2)cc(OC)c1OC the “activity, positive = re-replication” value was inactive: 7.24%.
For C=CCOC(=O)C(=O)/C=C/c1ccc2c(c1)Cc1ccccc1-2, the Potency was inconclusive [activator, partial curve, poor fit].
For O=C(CCc1nnc(CCCc2ccccc2)o1)N1CCCCCC1, the “activity, positive = re-replication” value was inactive: 3.9%.
In the case of O=C(CN1C(=O)CCC1=O)Nc1ccc(Cc2ccc(NC(=O)CN3C(=O)CCC3=O)cc2)cc1, the “activity, positive = re-replication” value is reported as inactive: 1.36%.
For Cc1ccc(S(=O)(=O)Nc2cccc3c2O[C@H](CN(C)C(=O)Nc2ccc(C(F)(F)F)cc2)[C@@H](C)CN([C@H](C)CO)C3=O)cc1, the Potency was inconclusive [activator, single point].
In the case of CCN(CC)c1ccc2ccc(=O)oc2c1, the Potency is reported as inconclusive [activator, single point].
For CCN(Cc1nc2ccccc2c(=O)[nH]1)C(=O)COc1ccccc1-c1ccccc1, the Potency was inconclusive [activator, single point].
With O=C(CSc1nnc(COc2ccccc2)n1Cc1ccco1)NCc1ccco1 the Potency was inconclusive [activator, full curve, poor fit].
With CCCOc1ccc(/C=C/C(=O)O)cc1OC the “activity, positive = re-replication” value was inactive: -1.14%.
For Cc1ccc(S(=O)(=O)N2CCOCC2)cc1NC(=O)CSc1nnc2cc(C)c3ccccc3n12, the Potency was inconclusive [activator, partial curve, poor fit].
In the case of Cc1c(C(=O)NC2CCCc3ccccc32)oc2ccc(S(=O)(=O)N3CCOCC3)cc12 (centres undefined), the Potency is reported as inconclusive [activator, partial curve, poor fit].
With CCC(C)C(=O)N1CCc2cc(-c3csc(N)n3)ccc21 (centres undefined) the Potency was inconclusive [activator, full curve, poor fit].
In the case of O=C(Nc1ccccc1)Nc1ccc2ccccc2n1, the Potency is reported as inconclusive [activator, partial curve, poor fit].
In the case of CCCCCn1nc(-c2ccccc2)c2nc3ccccc3nc21, the Potency is reported as inconclusive [activator, full curve].
With Cn1c(N2CCN(c3ccccn3)CC2)nc2c1c(=O)n(Cc1ccc(Cl)cc1)c(=O)n2C the “activity, positive = re-replication” value was inactive: -3.81%.
For CCOC(=O)Nc1ccc2c(c1)N(C(=O)OCCN(C)C)c1ccccc1CC2, the Potency was “inactive”.
For CCOC(=O)c1ccc(NC(=S)N2CCCC(C)C2)cc1 (centres undefined), the “activity, positive = re-replication” value was inactive: -2.69%.
In the case of COc1cc(/C=C/c2ccc3c(Br)cc(Br)c(O)c3n2)ccc1O, the Potency is reported as active: 13 µM.
With COc1cccc(-c2nc(CC(=O)O)cs2)c1OC the “activity, positive = re-replication” value was inactive: -1.45%.
In the case of C=CCc1cccc(C=Nc2cccn3cc(-c4ccccc4)nc23)c1O, the Potency is reported as inconclusive [activator, single point].
In the case of O=c1cc(N2CCc3ccccc32)[nH]c(=O)n1-c1ccc(Br)cc1, the Potency is reported as inconclusive [activator, partial curve, poor fit].
